Test results as given in article PMC4336329 (PLoS ONE, 2015).
The whole screen tested about 310,000 compounds, of which about 14,000 (4.5%) showed an effect of 50% or more. The effect is printed as a negative number. The list shows a part of the results.

Target: human ether-à-go-go-related gene (hERG) potassium channel (human, UniProt Q12809)
Assay: primary screen, population patch clamp on CHO cells stably expressing hERG
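Further: peak tail current of the secondary pulse compared with the same well before compound.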

human ether-à-go-go-related gene (hERG) potassium channel, sequence (Q12809 whole entry, looked up): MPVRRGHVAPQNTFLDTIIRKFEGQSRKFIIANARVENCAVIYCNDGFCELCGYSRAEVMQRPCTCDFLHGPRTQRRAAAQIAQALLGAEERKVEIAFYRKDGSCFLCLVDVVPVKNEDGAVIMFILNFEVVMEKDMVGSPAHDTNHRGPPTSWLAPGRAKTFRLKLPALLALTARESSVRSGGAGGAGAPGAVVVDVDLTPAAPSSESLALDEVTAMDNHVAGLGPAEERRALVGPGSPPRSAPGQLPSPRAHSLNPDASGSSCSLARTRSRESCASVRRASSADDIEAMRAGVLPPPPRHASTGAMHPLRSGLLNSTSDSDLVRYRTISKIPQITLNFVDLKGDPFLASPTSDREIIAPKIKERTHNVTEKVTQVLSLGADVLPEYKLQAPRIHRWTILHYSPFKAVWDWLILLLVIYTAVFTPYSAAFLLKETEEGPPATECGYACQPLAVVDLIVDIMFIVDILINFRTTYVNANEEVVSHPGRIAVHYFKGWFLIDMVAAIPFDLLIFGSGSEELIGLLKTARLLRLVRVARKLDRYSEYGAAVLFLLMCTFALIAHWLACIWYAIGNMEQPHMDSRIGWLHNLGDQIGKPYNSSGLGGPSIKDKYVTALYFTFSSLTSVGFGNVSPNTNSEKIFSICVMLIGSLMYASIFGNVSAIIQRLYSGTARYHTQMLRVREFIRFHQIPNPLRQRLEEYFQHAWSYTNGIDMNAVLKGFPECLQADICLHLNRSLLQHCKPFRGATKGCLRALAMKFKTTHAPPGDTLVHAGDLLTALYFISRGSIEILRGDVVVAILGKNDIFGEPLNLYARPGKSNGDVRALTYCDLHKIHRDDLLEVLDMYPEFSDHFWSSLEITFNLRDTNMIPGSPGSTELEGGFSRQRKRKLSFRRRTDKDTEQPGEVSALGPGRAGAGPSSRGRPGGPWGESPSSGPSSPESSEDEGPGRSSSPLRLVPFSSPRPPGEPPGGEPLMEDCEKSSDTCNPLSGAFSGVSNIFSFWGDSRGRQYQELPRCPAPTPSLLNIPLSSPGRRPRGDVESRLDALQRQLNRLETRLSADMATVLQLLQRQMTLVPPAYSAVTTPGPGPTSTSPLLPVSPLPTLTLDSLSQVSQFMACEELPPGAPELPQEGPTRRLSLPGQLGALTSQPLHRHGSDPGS

First: Cc1nc2ccc(NC(=O)c3ccc(Br)o3)cc2s1
Second: Cn1cc(Cl)c(C(=O)Nc2nc3ccc(Cl)cc3s2)n1
The “hERG current change (%, negative = inhibition) at 10uM” value of the first is higher: 7.61% for the first, -14% for the second.

Going from CCOC(=O)c1[nH]c(C)c(C(=O)C(C)C)c1C to CCOC(=O)c1ccc(NC(=O)c2cccnc2)cc1, the “hERG current change (%, negative = inhibition) at 10uM” value rises from 9.78% to 16.6%.

Compared with CC(C)NC(=O)N1CCN(c2ccncc2S(=O)(=O)N2CCOCC2)CC1, COc1ccc(N2CCN(C(c3cccs3)C(C)NC(=O)C(=O)N3CCOCC3)CC2)cc1 (stereo not shown) is higher in “hERG current change (%, negative = inhibition) at 10uM” value: -5.92% for the first, 5.49% for the second.

First: CCn1c2ccccc2c2cc(NC(=O)c3cc(C)on3)ccc21
Second: Cc1ccc(-c2ccccc2NC(=O)CS(=O)CC(=O)Nc2ccc(C)c(Cl)c2)o1 (stereo not shown)
The “hERG current change (%, negative = inhibition) at 10uM” value of the first is higher: 23% for the first, 0.484% for the second.

First: CC(C)(C)NC(=O)C(c1ccccc1)N(C(=O)C1CSC(=O)C1)c1ccccc1 (stereo not shown)
Second: CC(=O)OCC1=C(C(=O)O)N2C(=O)C(NC(=O)CC(C)c3ccccc3)C2SC1 (stereo not shown)
The “hERG current change (%, negative = inhibition) at 10uM” value of the first is higher: 3.97% for the first, -0.761% for the second.

First: CCCCn1c(N)c(N(CC(C)C)C(=O)C2CSC3(C)CCC(=O)N23)c(=O)[nH]c1=O (stereo not shown)
Second: CCCCn1c(N)c(N(CCOC)C(=O)c2ccc(-c3ccc([N+](=O)[O-])cc3)o2)c(=O)[nH]c1=O
The “hERG current change (%, negative = inhibition) at 10uM” value of the first is higher: 24.9% for the first, -18% for the second.

Compared with COc1ccc(S(=O)(=O)NC(C)C(=O)NCc2ccncc2)cc1Cl (stereo not shown), CCOc1cc(S(=O)(=O)Nc2ccncc2)ccc1F is higher in “hERG current change (%, negative = inhibition) at 10uM” value: 8.04% for the first, 12.8% for the second.

First: O=c1cc(O)c2c(=O)n(-c3ccccc3)c3ccccc3c2o1
Second: Cc1nc(SCC(=O)N2CCCc3ccccc32)c2oc3ccccc3c2n1
The “hERG current change (%, negative = inhibition) at 10uM” value of the first is higher: 4.59% for the first, 2.01% for the second.

Going from O=C(COC(=O)c1ccc(-c2ccc([N+](=O)[O-])cc2)o1)NC(=O)NC1CCCCC1 to COc1ccc(NC(=O)c2ccc([N+](=O)[O-])cc2[N+](=O)[O-])c(OC)c1, the “hERG current change (%, negative = inhibition) at 10uM” value rises from 0.0678% to 9.82%.

First: CCCN1Cc2cccc(C(=O)NCc3ccccc3OC)c2C1=O
Second: COc1ccccc1NC(=O)Nc1nnc(CC(=O)Nc2ccccc2C)s1
The “hERG current change (%, negative = inhibition) at 10uM” value of the first is lower: -34.2% for the first, 24.9% for the second.

Compared with Cc1cccc(-n2c(C)cc(/C=C3\NC(=O)NC3=O)c2C)c1, Cc1ccc(S(=O)(=O)/N=C2/NC(=O)/C(=C/c3ccccn3)S2)cc1 is lower in “hERG current change (%, negative = inhibition) at 10uM” value: 2.75% for the first, -10.1% for the second.

First: CCCn1c(=O)c2ccccc2n2c(SCCOc3ccccc3F)nnc12
Second: CCCn1c(SCC(=O)Nc2cccc(C(=O)OC)c2)nnc1-c1cccnc1
The “hERG current change (%, negative = inhibition) at 10uM” value of the first is higher: -29.9% for the first, -42% for the second.

Going from COC(=O)c1ccccc1S(=O)(=O)Nc1ccc(OC)nc1 to COc1ccccc1OCC(=O)Nc1nonc1NC(=O)COc1ccccc1OC, the “hERG current change (%, negative = inhibition) at 10uM” value rises from -0.17% to 6.65%.

Compared with COc1ccc(NC(=S)N(CCc2ccc(OC)c(OC)c2)Cc2ccccn2)cc1, COc1ccc(-c2cn(-c3ccccc3)nc2C(=O)O)cc1OC is higher in “hERG current change (%, negative = inhibition) at 10uM” value: -32.6% for the first, 5.07% for the second.

First: CCOC(=O)CNc1c(-c2ccc(O)cc2)nc2ccccn12
Second: COc1ccc(N2C(=O)c3ccccc3C2O)cc1 (stereo not shown)
The “hERG current change (%, negative = inhibition) at 10uM” value of the first is lower: -39.3% for the first, 5.64% for the second.

Going from CCOc1ccc(CCNC(=O)C2CCN(c3ccc(N4CCOCC4)nn3)CC2)cc1OCC to CCc1cc(=O)oc2cc(C)cc(OC(C)C(=O)NCCCN3CCOCC3)c12 (stereo not shown), the “hERG current change (%, negative = inhibition) at 10uM” value rises from -1.75% to 1.67%.

Going from NC(=O)C1CCN(C(=O)CCSc2ccccc2)CC1 to C=CCNC(=O)CN1C2CCCC1CC(NC(=O)c1ccccc1C)C2 (stereo not shown), the “hERG current change (%, negative = inhibition) at 10uM” value falls from 1.11% to -4.21%.

Compared with Cc1ccccc1NC(=O)CCl, Nc1nc(SCC(=O)Nc2ccccc2-c2ccccc2)n[nH]1 is lower in “hERG current change (%, negative = inhibition) at 10uM” value: -1.22% for the first, -1.48% for the second.

Compared with OCCC1CN(Cc2cccc3nonc23)CCN1Cc1ccsc1 (stereo not shown), OCCC1CN(Cc2ccsc2)CCN1C1CCCC1 (stereo not shown) is higher in “hERG current change (%, negative = inhibition) at 10uM” value: -52.6% for the first, -9.06% for the second.

First: Nc1ncnc2c1ncn2C1CCCO1 (stereo not shown)
Second: O=C(Nc1ccc2c(c1)CCC2)c1cnccn1
The “hERG current change (%, negative = inhibition) at 10uM” value of the first is higher: 7.09% for the first, -7.21% for the second.

Compared with FC(F)(F)C12CC(c3ccccc3)=NCCN1CCN2 (stereo not shown), Cc1cc(S(=O)(=O)N2CCN(Cc3ccccc3)CC2)c(C)s1.Cl is lower in “hERG current change (%, negative = inhibition) at 10uM” value: 13.1% for the first, -21.8% for the second.

First: Cc1nc(-c2nnc(SCC(=O)Nc3ccc(C(F)(F)F)cc3)n2C)cs1
Second: NNC(=O)COc1ccc(C(F)(F)F)cc1
The “hERG current change (%, negative = inhibition) at 10uM” value of the first is lower: -13.6% for the first, 15.6% for the second.

Compared with CC(O)C(=O)O.COc1ccc(CN(CC(O)COc2cccc3[nH]cc(C)c23)C(C)(C)C)cc1 (stereo not shown), Cc1nc(Nc2cccc(C(C)O)c2)c2nnn(Cc3ccc(F)cc3)c2n1 (stereo not shown) is higher in “hERG current change (%, negative = inhibition) at 10uM” value: -60.6% for the first, 5.08% for the second.

Compared with Cc1cccc(-n2ncc3c2CCCC3NC(=O)CCc2cccnc2)c1C (stereo not shown), Cc1nc(-c2ccc(S(=O)(=O)NCc3cccnc3)s2)cs1 is lower in “hERG current change (%, negative = inhibition) at 10uM” value: 25.3% for the first, 9.05% for the second.

Going from COc1ccc(CCN2C(=O)NC(NS(=O)(=O)c3ccc(Cl)cc3)(C(F)(F)F)C2=O)cc1OC (stereo not shown) to COc1ccc(/C(=C\Nc2ccc(C)c(C)c2)C(C)=O)cc1OC, the “hERG current change (%, negative = inhibition) at 10uM” value falls from 14.2% to -0.0535%.

Compared with O=c1oc2c3c4c(cc2c2c1CCC2)OCCN4CCC3, CNC(=O)c1c(O)c2cccc3c2n(c1=O)CCC3 is higher in “hERG current change (%, negative = inhibition) at 10uM” value: -0.13% for the first, 12% for the second.

Compared with Clc1ccc2nc(-c3ccc4c(c3)OCO4)cn2c1, O=[N+]([O-])c1nn(-c2ccc3c(c2)OCCO3)n(O)c1=Nc1ccccc1 is lower in “hERG current change (%, negative = inhibition) at 10uM” value: 16.2% for the first, -1.76% for the second.

Going from O=S1(=O)N=C(N(CCO)/N=C/c2ccc(Cl)cc2)c2ccccc21 to O=C(Cc1ccccc1)N/N=C/c1ccc2cccc(O)c2n1, the “hERG current change (%, negative = inhibition) at 10uM” value falls from 4.3% to -0.649%.

First: O=C(CCc1nc2ccccc2[nH]c1=O)OCc1ccc(S(=O)(=O)N2CCOCC2)cc1
Second: Cc1ccc(NC(=O)c2cc(=O)[nH]c3ccc(S(=O)(=O)N4CCOCC4)cc23)nc1
The “hERG current change (%, negative = inhibition) at 10uM” value of the first is lower: -4.49% for the first, 3.37% for the second.

Going from CCC(CC)c1nnc(NC(=O)C2CC(=O)N(CCc3ccc(F)cc3)C2)s1 (stereo not shown) to COCC(=O)n1nc(-c2ccccc2)nc1NCc1ccc(F)cc1, the “hERG current change (%, negative = inhibition) at 10uM” value falls from 0.832% to -10.6%.

Going from Nc1nc(-c2cccnc2)nn1C(=O)COc1ccccc1 to N/C(=N\OC(=O)COc1ccc(Cl)cc1Br)c1cccnc1, the “hERG current change (%, negative = inhibition) at 10uM” value falls from 5.7% to -8.3%.

Going from Cc1ccc(NN=Nc2nc3c([nH]2)c(=O)n(C)c(=O)n3C)cc1 to Cn1c2c(c(=O)n(C)c1=O)C(c1ccc(Br)cc1)Nc1ccccc1O2 (stereo not shown), the “hERG current change (%, negative = inhibition) at 10uM” value falls from 5.51% to -19.4%.

First: Cc1ccccc1Nc1nc(NCc2ccco2)c2ccccc2n1.Cl
Second: O=C(NCc1ccco1)/C(=C\c1cccs1)NC(=O)c1ccccc1
The “hERG current change (%, negative = inhibition) at 10uM” value of the first is lower: -63.6% for the first, 3.5% for the second.

First: CN(Cc1ccccc1)C(=O)COc1ccc2ccccc2c1
Second: O=CNc1ccc(OP(=O)(Oc2ccccc2)Oc2ccccc2)cc1
The “hERG current change (%, negative = inhibition) at 10uM” value of the first is higher: 2.59% for the first, -61.7% for the second.

First: COc1ccc(-c2oc(NC(=O)CSc3nncn3C)c(C#N)c2-c2ccc(OC)cc2)cc1
Second: CCOC(=O)c1nnc(-c2ccc(C)cc2)nc1Sc1cccc(Cl)c1
The “hERG current change (%, negative = inhibition) at 10uM” value of the first is higher: 8.67% for the first, -10.2% for the second.

Compared with O=C(c1cccc(C(=O)N2CCN(c3ccccc3)CC2)c1)N1CCN(c2ccccc2)CC1, CC(C)c1ccc2oc(=O)cc(CN3CCN(c4ccc(F)cc4)CC3)c2c1 is higher in “hERG current change (%, negative = inhibition) at 10uM” value: -41.7% for the first, -2.26% for the second.

Going from C=CC[C@@]12C=C(OC)C(=O)C(OC)=C1O[C@H](c1ccc3c(c1)OCO3)[C@H]2C to COC(Cn1c(-c2cccc(S(=O)(=O)N(C)C)c2)n[nH]c1=S)OC, the “hERG current change (%, negative = inhibition) at 10uM” value rises from 10.7% to 15.7%.

First: CCCc1nnc(SCC(=O)NC2CC2)n1C
Second: CCCCCCn1c(C(C)NC(=O)c2ccco2)nc2ccccc21 (stereo not shown)
The “hERG current change (%, negative = inhibition) at 10uM” value of the first is higher: 12.6% for the first, -59.9% for the second.

First: CC1=NN(CCC#N)C(=O)/C1=C/c1ccc(N(C)C)cc1
Second: Cc1ccc2c3c1C1(C(=O)N3C(C)(C)CC2C)C(C#N)=C(N)Oc2cc(O)ccc21 (stereo not shown)
The “hERG current change (%, negative = inhibition) at 10uM” value of the first is higher: 23.1% for the first, -3.98% for the second.

Going from O=C(CCS(=O)(=O)c1ccc2c(c1)NC(=O)CS2)NCCc1ccccc1 to NNC(=O)/C(=N/Nc1ccccc1)S(=O)(=O)c1ccc(Cl)cc1, the “hERG current change (%, negative = inhibition) at 10uM” value falls from 8.31% to -8.15%.

Compared with Cc1ccc(Nc2nc(N)nc(CN3CCN(C)CC3)n2)cc1, CC1CCN(C(=O)Nc2cccc(NC(=O)N3CCC(C)CC3)c2)CC1 is higher in “hERG current change (%, negative = inhibition) at 10uM” value: -27.8% for the first, -1.98% for the second.

First: O=C(N/N=C/c1cccc(C(F)(F)F)c1)c1ccccc1O
Second: CC1(C(=O)O)C=CCN1C(=O)c1ccccc1 (stereo not shown)
The “hERG current change (%, negative = inhibition) at 10uM” value of the first is lower: 10.4% for the first, 13.5% for the second.

Going from CCOC(=O)c1ccc2c(c1)n(Cc1ccccc1)c(C)[n+]2CC.[O-][Cl+3]([O-])([O-])[O-] to Cc1ccc(NC(=O)COC(=O)/C=C/c2c(C)nn(-c3ccc(F)cc3)c2Cl)cc1F, the “hERG current change (%, negative = inhibition) at 10uM” value rises from -7.56% to 0.00898%.

Going from O=C1SCCC1NS(=O)(=O)c1ccccc1[N+](=O)[O-] (stereo not shown) to C#CCNC(=O)C1=C[C@H](c2ccc(Br)cc2)[C@@H](CCCO)[C@H](OCC)O1, the “hERG current change (%, negative = inhibition) at 10uM” value falls from 2.12% to -29.9%.
